Several values for one entry are separate records, joined by “and”; a condition that tells them apart may be missing. Equal entries are not always repeated. The list shows a part of the results. Shown are side measurements of this screen, not its main read-out; they come without a call. For some of these results: Most of these compounds were active or inconclusive in the main read-out, so they are no random draw. Words in brackets tell the shape of the fitted curve; partial curves, single points and poor fits give uncertain potencies.

Assay [1] in a line: qHTS Assay for Lipid Storage Modulators (AID 1519). The note with it: Drosophila S3 cells, BODIPY lipid droplet/cell ratio, laser cytometry, cells loaded with oleic acid. In outline:
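Cells seeded at 5,000 per well were treated with compounds over a concentration series and loaded with oleic acid (400 uM, as added). Lipid droplet fluorescence (488 nm excitation, 500-530 nm channel) was read by laser-scanning cytometry and normalized to 20 uM Triacsin C.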

A short description of assay [2]: NCATS anti-infectives library activity on the primary C. elegans qHTS viability assay (AID 1745855). The note with it: C. elegans worm area imaging. The method in brief:
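Viability is taken from GFP fluorescence of PE254-GFP-FLuc C. elegans imaged by laser cytometry over 7 days. Ten L1 worms per well grow at 21 °C on TOP10 E. coli capsules with titrated compound; levamisole marks toxicity.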

Assay [3] in a line: qHTS Assay for Modulators of Human Peripheral Myelin Protein 22 (PMP22) Expression/Activity (AID 1967). To be noted: Cell-based PMP22 reporter, dual-color luciferase ratio. In outline:
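Engineered MSC80 cells, Pmp22-promoter green and EF-alpha red luciferase reporters; 24h compound treatment at 37 °C. Concentration-response fits on green, red and ratio signals, each overlap-corrected, with %Activity normalized to untreated wells.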

Assay [4] deals with Catechol O-methyltransferase (Homo sapiens) (UniProt P21964). As to the kind of experiment: Confirmatory Screen for Target Class Profiling of Small Molecule Inhibitors of Methyltransferases (AID 1745852).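 Further: inhibitor potency for blocking SAH production.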 To be noted: MTase-Glo luminescence, SAH detection, recombinant enzyme; measured here: COMT inhibition potency.
Sequence of UniProt P21964 (P21964 whole entry, looked up): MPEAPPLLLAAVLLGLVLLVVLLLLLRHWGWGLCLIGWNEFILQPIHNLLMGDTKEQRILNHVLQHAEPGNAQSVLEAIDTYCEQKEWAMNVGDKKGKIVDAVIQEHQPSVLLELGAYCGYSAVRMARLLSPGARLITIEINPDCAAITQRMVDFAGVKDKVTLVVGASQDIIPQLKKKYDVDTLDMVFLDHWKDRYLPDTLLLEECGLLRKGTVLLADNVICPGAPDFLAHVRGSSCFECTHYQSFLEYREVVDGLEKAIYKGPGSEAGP
A short description of assay [5]: qHTS for identification of novel therapeutic agents for treatment of microphthalmiaassociated transcription factor (MiT) renal cell carcinoma (RCC) (AID 1963991). The note with it: CellTiter-Glo, 48 h; for z-score: stronger effect = lower value. The method in brief:
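Three TFE3-fusion RCC cell lines (UOK109, UOK124, UOK145), 500 cells/well, were exposed to the 1912-compound MIPE 4.0 library for 48 hours at 37 C. Viability was read by CellTiter-Glo luminescence, normalised to DMSO (100%) and empty wells (0%), with 11-concentration curve fits.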

Assay [6] in a line: qHTS drug screen for cell cycle checkpoint inhibitors in PARPi-resistant BRCA-mutant ovarian cancer cell lines. (AID 1963452). The note with it: PEO1/OlaR viability, CellTiter-Glo luminescence, 96 h. The method in brief: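 PEO1, PEO4 and PEO1/OlaR ovarian cancer cells, 600 per well, exposed 96 h at 37C to a dilution series. Viability read by CellTiter-Glo luminescence, normalized to DMSO and empty wells; activity summarized as Z-AUC.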

Assay [7] is described as follows: S16 Schwann cell PMP22 intronic element beta-lactamase assay (AID 624044). Further: nearly all actives have a fitted effect of over 15% in size. The note with it: S16 rat Schwann cells, PMP22 element beta-lactamase FRET, 24 h; measured here: 460 nm blue channel. The method in brief:
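Rat S16 Schwann cells with beta-Lac driven by a PMP22 intronic element, compound-treated 24 h at 37 °C. LiveBLAzer FRET B/G read: 460 nm normalized to potassium clavulanate vs DMSO; 535 nm FRET as viability; concentration-effect curves classified.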

A short description of assay [8]: A High-Content qHTS Against Drug Library for the Identification of Small Molecules that Inhibit DYT1 Early Onset Primary Dystonia-Associated Cell Pathology (AID 1645839). The note with it: HEK293 Flp-In EGFP-delE TorsinA, punctate imaging, 48 h; measured here: cell count cytotoxicity. The method in brief: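 Flp-In T-REx 293 cells with tetracycline-inducible EGFP-delE hTOR1A (WT EGFP-hTOR1A as reference), 800 cells/well; compound added with tetracycline, 48 h at 37 C. Fixed, permeabilized cells imaged; %pathology (punctate TorsinA) primary, cell count counterscreen.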

Assay [9] in a line: qHTS Assay for Inhibitors of PDE-IV (AID 607).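 Further: parental cells stimulated with forskolin 10 µM plus RO 20-1724 100 µM.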 The note with it: HEK293 ACTOne CNG channel cells, membrane potential fluorescence; measured here: parental cell counter-screen. In outline:
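ACTOne HEK293 cells carry a modified cAMP-gated CNG channel and express endogenous PDE4; plated 1000 cells/well, compounds up to 22.9 uM final. Membrane-potential dye fluorescence (ex 535/em 590) was read; parental cells received 10 uM forskolin + 100 uM RO 20-1724.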

Where [10] appears, read: measured here: cell count channel max response.
Setting [11] is: measured here: cell number channel AC50.
Setting [12] is: measured here: lipid (BODIPY) channel AC50.
Setting [13] is: measured here: lipid channel max response.
[14] abbreviates: day 7, measured here: worm number, day 3.
The mark [15] stands for this setting: measured here: red reporter channel AC50, EF-alpha promoter control reporter in MSC80 mouse Schwann cells.
Where [16] appears, read: TFE3-RCC UOK109 viability, measured here: UOK109 Z-AUC.
Setting [17] is: TFE3-RCC viability, measured here: UOK124 Z-AUC.
Where [18] appears, read: TFE3-RCC viability, measured here: UOK145 Z-AUC.
Setting [19] is: TFE3-RCC viability, measured here: UOK145 cell viability.
The mark [20] stands for this setting: measured here: PEO1 parental viability.
[21] abbreviates: TFE3-RCC viability, measured here: UOK124 cell viability.
The mark [22] stands for this setting: measured here: green reporter channel AC50, mouse Pmp22 promoter in mouse Schwann cells.
Tags describe the fitted curve by direction and shape.

With `COc1cc(C[C@H]2C(=O)OC[C@@H]2Cc2ccc(OC)c(OC)c2)ccc1O`, the max response in [1] (setting [10]) was 61.1%; in assay [1] (setting [13]) it was -60.8%. Also, the AC50 in assay [1] (setting [11]) is 1.78 µM [rising, full curve]; in assay [1] (setting [12]), 11.2 µM [falling, full curve, poor fit]; in assay [2] (setting [14]), 25.8 µM [rising, partial curve, poor fit].
For the compound `O=c1ccc2ccc(O)c(O)c2o1`, the max response in assay [1] (setting [10]) is -5.71%; in [1] (setting [13]) it was -0.0858%. Moreover, the AC50 in [1] (setting [11]) is 0.00501 µM [falling, full curve, poor fit]; in assay [1] (setting [12]), 3.55 µM [falling, full curve, poor fit]; in [3] (setting [15]), 53.6 µM [falling, partial curve]; in assay [5] (setting [19]) it was 14.8 µM [falling, partial curve, poor fit]. Moreover, the IC50 in assay [4] was 2.43 µM [rising, full curve]. The z-score in assay [5] (setting [16]) is 0.178; in assay [5] (setting [17]), 0.103; in [5] (setting [18]), 0.507.
Take `NC(=O)c1ccc(-c2nc(-c3ccc4c(c3)OCO4)c(-c3ccccn3)[nH]2)cc1`: the max response was found to be 95.4% in [1] (setting [10]) and 125% in assay [1] (setting [13]). Further, the AC50 in assay [1] (setting [11]) is 0.112 µM [rising, full curve]; in assay [1] (setting [12]), 0.0708 µM [rising, full curve]; in assay [6] (measured here: PEO4 viability), 4.36 µM [falling, full curve].
For `COC(=O)Nc1nc2ccc(C(=O)c3ccccc3)cc2[nH]1`, the max response in [1] (setting [10]) turned out to be 7.94%; in assay [1] (setting [13]), 20.9%. For the same compound, the half-maximal activity concentration (AC50) in [1] (setting [11]) was 3.16 µM [rising, partial curve]; in [1] (setting [12]), 3.16 µM [rising, partial curve, poor fit]; in [7], 9.51 µM [falling, partial curve, poor fit]; in assay [6] (setting [20]), 0.11 µM [falling, full curve]; in assay [6] (measured here: PEO4 viability) it was 0.138 µM [falling, full curve]; in [5] (setting [21]), 1.18 µM [falling, full curve]. The AC50 in assay [5] (setting [19]) was 5.26 µM [falling, partial curve]. Moreover, the z-score in [5] (setting [16]) is -3.21; in assay [5] (setting [17]), -0.543; in assay [5] (setting [18]), -0.0205.
For the compound `COc1c(O)cc2oc3cc(O)c(CC=C(C)C)c(O)c3c(=O)c2c1CC=C(C)C`, the max response in [1] (setting [10]) is -21% and -70.5% and -72%; in assay [1] (setting [13]) it was -67.7% and -96.5% and -83.4%. Moreover, the AC50 was 25.1 µM [falling, partial curve] and 35.5 µM [falling, single point] in assay [1] (setting [11]); 22.4 µM [falling, single point] and 22.4 µM [falling, partial curve] and 25.1 µM [falling, partial curve, poor fit] in [1] (setting [12]); 9.16 µM [falling, partial curve, poor fit] in assay [2] (day 7, measured here: worm number); 1.83 µM [falling, full curve, poor fit] in assay [2] (day 7, measured here: worm area, day 3); 5.78 µM [falling, full curve, poor fit] in assay [2] (setting [14]).
On to `OCCN1CCN(CCCN2c3ccccc3C=Cc3ccccc32)CC1`, for which the max response in assay [1] (setting [10]) was found to be 34.9%; in assay [1] (setting [13]) it was 41.7%. Also, the AC50 in assay [1] (setting [11]) was 39.8 µM [rising, single point]; in [1] (setting [12]), 39.8 µM [rising, single point]; in [3] (setting [22]), 47.8 µM [falling, partial curve] and 75.7 µM [falling, partial curve]; in assay [3] (setting [15]) it was 67.5 µM [falling, partial curve] and 84.9 µM [falling, single point]; in assay [8], 31.6 µM [falling, single point].
Regarding `CN1CCC(=C2c3ccccc3C=Cc3ccccc32)CC1`, the AC50 is 15.8 µM [rising, partial curve] in assay [9]; 3.16 µM [rising, full curve, poor fit] in assay [1] (setting [11]); 3.16 µM [rising, full curve, poor fit] in [1] (setting [12]); 60.1 µM [falling, partial curve] in assay [3] (setting [22]); 75.7 µM [falling, partial curve, poor fit] in assay [3] (setting [15]); 12.3 µM [falling, partial curve, poor fit] in assay [6] (setting [20]). Besides, the concentration at half-maximal activity (AC50) was 11 µM [falling, partial curve, poor fit] in assay [6] (measured here: PEO4 viability); 14.8 µM [falling, partial curve] in assay [5] (setting [21]); 18.7 µM [falling, partial curve, poor fit] in assay [5] (setting [19]). In addition, the max response in assay [1] (setting [10]) worked out at 42.6%; in assay [1] (setting [13]), 51.2%. Moreover, the figures for the z-score in [5] (setting [16]), in assay [5] (setting [17]) and in assay [5] (setting [18]) were -0.0916, -0.151 and -0.409, respectively.
For the compound `COC(=O)Nc1nc2ccc(Sc3ccccc3)cc2[nH]1`, the results for the max response in assay [1] (setting [10]) and in assay [1] (setting [13]) were -39.5% and -51.8%, respectively. The AC50 in [1] (setting [11]) is 12.6 µM [falling, partial curve, poor fit]; in assay [1] (setting [12]), 14.1 µM [falling, partial curve, poor fit]; in assay [7], 3.01 µM [falling, full curve, poor fit]; in [8], 0.316 µM [falling, full curve, poor fit]; in [6] (setting [20]) it was 0.275 µM [falling, full curve]; in assay [6] (measured here: PEO4 viability) it was 0.219 µM [falling, full curve]. The AC50 in [5] (setting [21]) is 1.48 µM [falling, full curve]; in assay [5] (setting [19]) it was 1.18 µM [falling, full curve]. Also, the z-score is 0.706 in [5] (setting [16]), -0.576 in [5] (setting [17]) and 0.629 in assay [5] (setting [18]).

Values taken from PubChem BioAssay (NCATS).
